The test system of one assay is HSkMC. Briefly: cytotoxicity call (relative viability < 0.9). The conditions noted are these: 10 µM.
A further assay concerns HepG2. As to the kind of experiment: cytotoxicity call (relative viability < 0.9). The conditions noted are these: 10 µM.
For a further assay, the system named is S. aureus RN4220. As to the kind of experiment: growth inhibition call (relative growth <= 0.2). The conditions noted are these: 50 µM.

We go through 7 molecules from the antibiotic and cytotoxicity screens of Wong et al. (2023).

The other results are listed elsewhere or left out.

Take `C[C@H](CO)N1C[C@H](C)[C@@H](CN(C)S(=O)(=O)c2ccc(Oc3ccccc3)cc2)OCc2cnnn2CCCC1=O`: the cytotoxicity call in the assay with HSkMC and in the assay with HepG2 was “inactive” each time. Further, in the assay on S. aureus RN4220, the growth inhibition call is “inactive”.

Consider `C[C@H]1CN([C@@H](C)CO)C(=O)c2cc(NC(=O)CCCCCC(=O)Nc3ccccc3N)ccc2O[C@@H]1CN(C)Cc1ccccc1`, for which, in the assay with HSkMC, the cytotoxicity call was “inactive”. Also, the cytotoxicity call with HepG2 is “active”. Besides, in the assay with S. aureus RN4220, the growth inhibition call was “inactive”.

Regarding `Cc1ccc(S(=O)(=O)N(C)C[C@H]2OCCCC[C@@H](C)Oc3ccc(NS(C)(=O)=O)cc3C(=O)N([C@@H](C)CO)C[C@H]2C)cc1`, the cytotoxicity call with HSkMC and in the assay with HepG2 was “inactive” each time. Further, the growth inhibition call in the assay on S. aureus RN4220 was “inactive”.

As for `COc1ccc(-c2cnc3c(c2)C(=O)N([C@H](C)CO)C[C@@H](C)[C@@H](CN(C)S(=O)(=O)c2ccc(OC)cc2)O3)cc1`, the cytotoxicity call in the assay on HSkMC (human skeletal muscle cells) and with HepG2 was “inactive” in each case. In the assay with S. aureus RN4220, the growth inhibition call is “inactive”.

For `CC(C)NC(=O)Nc1ccc2c(c1)C(=O)N([C@H](C)CO)C[C@H](C)[C@H](CN(C)C(=O)C1CCCCC1)OCCCC[C@@H](C)O2`, the cytotoxicity call in the assay with HSkMC and in the assay on HepG2 was “inactive” throughout. For the same molecule, the growth inhibition call in the assay with S. aureus RN4220 is “inactive”.

`C[C@@H]1CN([C@H](C)CO)C(=O)c2cccc(NC(=O)c3nc4ccccc4s3)c2O[C@@H]1CN(C)Cc1ccc(C(F)(F)F)cc1`: the cytotoxicity call with HSkMC and in the assay on HepG2 was “inactive” in each case. In addition, in the assay with S. aureus RN4220, the growth inhibition call was “inactive”.

On to `COc1ccc(C2=C(NC(=O)c3ccc(OC)cc3-c3cccc(OC)c3)C(=O)c3ccccc3C2=O)cc1`, for which, in the assay with HSkMC, the cytotoxicity call is “inactive”. In addition, in the assay with HepG2, the cytotoxicity call was “active”. Moreover, the growth inhibition call in the assay on S. aureus RN4220 is “inactive”.
